# Data published in the supplement of paper PMC10369915.
# The list shows a part of the results. Rule as the data show it: active = 3.2 or more and inactive = the rest. Only a few entries rise above the background.
# Columns and labels:
# Test in all cases: enrichment score (SH2-bound / input frequency) (ratio); bacterial display of known human phosphotyrosine sites (pTyr-Var adds point mutants) read by sequencing; higher = stronger binding; tyrosines were phosphorylated by kinases first
# Details in all cases: peptide library: pTyr-Var
# [1] = molecular target: SHP2 C-SH2 domain E139D
# [2] = molecular target: SHP2 C-SH2 domain wild-type
# [3] = molecular target: SHP2 N-SH2 domain L43F
# [4] = molecular target: SHP2 N-SH2 domain T42A
# [5] = molecular target: SHP2 N-SH2 domain T52S
# [6] = molecular target: SHP2 N-SH2 domain wild-type
# 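Also: displayed peptides selected on beads carrying the immobilized SH2 domain, with library peptides lacking any tyrosine serving as negative controls.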
Binder,enrichment score [1],enrichment score [2],enrichment score [3],enrichment score [4],enrichment score [5],enrichment score [6]
FNNFGYGSDGF [HNRNPH3_Y161_N163S_YF],inactive: 0.9,inactive: 0.798,inactive: 0.743,inactive: 0.746,inactive: 0.921,inactive: 0.813
FNNFGYGNDGF [HNRNPH3_Y161_YF],inactive: 0.713,inactive: 0.769,inactive: 0.857,inactive: 0.771,inactive: 0.814,inactive: 0.682
EGDGVYTLNNK [HP_Y125_E130K],inactive: 0.642,inactive: 0.618,inactive: 0.709,inactive: 0.619,inactive: 0.613,inactive: 0.652
EGDGVYTLNDE [HP_Y125_N129D],inactive: 0.379,inactive: 0.474,inactive: 0.462,inactive: 0.536,inactive: 0.584,inactive: 0.508
LPSKDYAEVRR [HP_Y272_G276R],inactive: 0.657,inactive: 0.981,inactive: 0.546,inactive: 0.559,inactive: 0.607,inactive: 0.478
VGRVGYVSGWG [HP_Y280],inactive: 0.972,inactive: 0.92,inactive: 0.953,inactive: 0.847,inactive: 0.946,inactive: 1.06
LNYNEYFRDLN [HPRT1_Y198_D194N],inactive: 1.18,inactive: 1.19,inactive: 1.09,inactive: 1.21,inactive: 1.49,inactive: 1.03
LNFNEYFRDLN [HPRT1_Y198_D194N_YF],inactive: 1.16,inactive: 1.17,inactive: 1.11,inactive: 1.28,inactive: 1.15,inactive: 0.867
LDYNEYFRGLN [HPRT1_Y198_D201G],inactive: 0.739,inactive: 0.627,inactive: 0.699,inactive: 0.698,inactive: 0.711,inactive: 0.642
LDYNEYFRNLN [HPRT1_Y198_D201N],inactive: 0.92,inactive: 0.839,inactive: 0.617,inactive: 0.813,inactive: 0.915,inactive: 1.04
LDFNEYFRNLN [HPRT1_Y198_D201N_YF],inactive: 0.975,inactive: 1.3,inactive: 0.777,inactive: 0.756,inactive: 1,inactive: 0.782
LDYNEYVRDLN [HPRT1_Y198_F199V],inactive: 1.1,inactive: 0.854,inactive: 1.18,inactive: 0.712,inactive: 0.871,inactive: 0.563
LDFNEYFRDLN [HPRT1_Y198_YF],inactive: 1.07,inactive: 1.01,inactive: 1.11,inactive: 1.06,inactive: 1.04,inactive: 0.935
ADLLVYIKALN [HPRT1_Y81_D80V],inactive: 1.65,inactive: 1.75,inactive: 1.35,inactive: 1.2,inactive: 1.42,inactive: 1.75
ADQLDYIKALN [HPRT1_Y81_L78Q],inactive: 0.516,inactive: 0.529,inactive: 0.724,inactive: 0.709,inactive: 0.584,inactive: 0.817
AGKEEYSAMRD [HRAS_Y64_Q61K],inactive: 0.518,inactive: 0.502,inactive: 0.459,inactive: 0.483,inactive: 0.452,inactive: 0.55
AGLEEYSAMRD [HRAS_Y64_Q61L],inactive: 0.658,inactive: 0.607,inactive: 0.626,inactive: 0.525,inactive: 0.659,inactive: 0.737
DVAKEYGHLLP [HRC_Y99_S96A],inactive: 0.63,inactive: 0.63,inactive: 0.628,inactive: 0.73,inactive: 0.636,inactive: 0.726
NTGLDYIKFTW [HRH1_Y386],inactive: 1.06,inactive: 1.16,inactive: 1.71,inactive: 2.8,inactive: 1.9,inactive: 1.19

Binder,enrichment score [1],enrichment score [2],enrichment score [3],enrichment score [4],enrichment score [5],enrichment score [6]
NTGLEYIKFTW [HRH1_Y386_D385E],inactive: 1.26,inactive: 1.63,inactive: 2.69,active: 4.48,active: 3.4,inactive: 1.39
GSSSSCGQHGS [HRNR_Y517_Y517C],inactive: 0.873,inactive: 0.737,inactive: 0.805,inactive: 0.564,inactive: 0.745,inactive: 0.985
MKNQKYGRIIM [HSD17B4_Y143_K140N],inactive: 1.24,inactive: 1.13,inactive: 1.22,inactive: 1.05,inactive: 0.898,inactive: 0.89
VISNAYVDLSP [HSD17B4_Y602_A606S],inactive: 1.02,inactive: 0.955,inactive: 1.01,inactive: 3.09,inactive: 0.854,inactive: 1.15
ETKAFYPEEIS [HSPA1A_Y115],inactive: 0.691,inactive: 0.821,inactive: 0.792,inactive: 0.693,inactive: 0.77,inactive: 0.861
DTKAFYPEEIS [HSPA1A_Y115_E110D],inactive: 0.696,inactive: 0.808,inactive: 0.798,inactive: 0.582,inactive: 0.714,inactive: 0.743
LIGRGYDDPEV [HSPA9_Y128_R127G],inactive: 1.07,inactive: 0.705,inactive: 1.11,inactive: 0.769,inactive: 1.15,inactive: 0.897
LIGRRCDDPEV [HSPA9_Y128_Y128C],inactive: 0.394,inactive: 0.384,inactive: 0.201,inactive: 0.391,inactive: 0.532,inactive: 0.708
ETAENYLGHTA [HSPA9_Y181],inactive: 0.636,inactive: 0.518,inactive: 0.667,inactive: 0.529,inactive: 0.589,inactive: 0.538
ITVPAYFNDSQ [HSPA9_Y196],inactive: 1.01,inactive: 1.06,inactive: 0.984,inactive: 1.02,inactive: 1.17,inactive: 1.15
QDEHGYISLCF [HSPB1_Y133_R136L],inactive: 0.788,inactive: 1.27,inactive: 1.32,inactive: 1.59,inactive: 1.34,inactive: 1.85
QDEHGYIFRCF [HSPB1_Y133_S135F],inactive: 0.306,inactive: 0.58,inactive: 0.641,inactive: 0.53,inactive: 0.674,inactive: 0.765
CFTGKYTLPPG [HSPB1_Y142_R140G],inactive: 0.962,inactive: 1.11,inactive: 1.29,inactive: 0.738,inactive: 0.99,inactive: 1.1
SSWPDYVRPLP [HSPB1_Y54_G53D],inactive: 1.12,inactive: 0.991,inactive: 0.929,inactive: 0.861,inactive: 0.905,inactive: 0.98
RVDRDYVLKSA [HTATIP2_Y111],inactive: 0.751,inactive: 0.741,inactive: 0.87,inactive: 0.808,inactive: 0.764,inactive: 0.986
RVYRDYVLKSA [HTATIP2_Y111_D108Y],inactive: 1.25,inactive: 0.944,inactive: 0.842,inactive: 1.02,inactive: 1.37,inactive: 1.15
MFNPMYALFRT [HUWE1_Y4078],inactive: 1.45,inactive: 1.76,inactive: 1.48,inactive: 1.36,inactive: 1.4,inactive: 1.46
MFKPMYALFRT [HUWE1_Y4078_N4075K],inactive: 2.42,inactive: 2.18,inactive: 2.27,inactive: 2.09,inactive: 2.24,inactive: 1.8
